For the data set, the system named is ATP. Briefly: switch fluorescence ratio, 500 uM ATP over buffer (Cy3 cluster intensity, sum of 5 cycles each) (fold (ratio)); higher = stronger signal-on switching upon ATP binding; sequences stand for … in TCGTCGGCAGCGTCAGATGTGTATAAGAGACAGTTTTTTTTTTTTTTTTTTTTTTTTT…TC. As to conditions: aptamer strand: ATP DNA aptamer (quencher-CACCTGGGGGAGTATTGCGGAGGAAGG + anchor), 100 nM annealed; ATP concentration: 500 uM; one replicate. The method in brief:
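Five buffer/ATP imaging cycles were run on Cy3-labelled switching-strand clusters on a modified Illumina MiSeq flow-cell, with NaOH stripping and re-annealing between cycles. In each cycle, clusters annealed to 100 nM quencher-labelled ATP aptamer were imaged in selection buffer, then after 15 min with 500 uM ATP at 22 °C. Per cluster, the fluorescence ratio is summed target-cycle over summed buffer-cycle Cy3 intensity, averaged per switch-domain sequence. Only clusters within 100-1000 RFU were kept.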

Sequences with one replicate were seen in a single cluster, so their values are uncertain.
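Note: ATP exposure 15 min at 22 °C before imaging.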

TCAATATAG: the switch fluorescence ratio was determined as 0.992. In the case of GGAAAGCAAC, the switch fluorescence ratio came out at 1.18. Next, TACGGCTCAG: 1.03. To TTGCAGTGGC belongs 1.56. With TCTGTAGGGA, the switch fluorescence ratio turned out to be 1.75. To GTCATAATGG belongs 0.983; to GCAGTACATA, 1.1.

As to GGCTGTATAG, the switch fluorescence ratio was 0.965.

As for CTGGGGTGAT, the switch fluorescence ratio was found to be 1.04. Take AAAAAGGCTG: the switch fluorescence ratio came out at 0.899. As to ATGTCTGGGG, the switch fluorescence ratio is 0.989. As for GATCTATGAA, the switch fluorescence ratio turned out to be 0.997.

With TTGGTTACTA, the switch fluorescence ratio was found to be 1.03. Next, TAAAGTTTCT: 0.95; AACATCTAAT: 0.977. To AAGAATTCG belongs 1.13; to AGCTAGGCCT, 1.02. As for AATAAACCAC, the switch fluorescence ratio was found to be 1.07. For the sequence AATCTCCTAC, the switch fluorescence ratio worked out at 1.08. GGTGGTAGTG: the switch fluorescence ratio is 0.981. Take GCTGTATGCG: the switch fluorescence ratio amounted to 0.915. To CACCTGGTCG belongs 1.07; to CGGACTACTT, 1.07; to TTCCAACGGC, 1.06.

Regarding GTAAGGGCGG, the switch fluorescence ratio amounted to 1.

With CGGCCCGCGC, the switch fluorescence ratio turned out to be 1.24. With ATTTATTCCA, the switch fluorescence ratio amounted to 0.999.

In the case of ATATGGGCCA, the switch fluorescence ratio was found to be 1.27.

AGCTCATAGA: the switch fluorescence ratio stood at 0.987. AGTGTATGCG: the switch fluorescence ratio is 1.14.

For the sequence CGGGGTGAGC, the switch fluorescence ratio was found to be 0.954. Next, GGAAAGTCGG: 1.02. Regarding TTGAAAGCAT, the switch fluorescence ratio amounted to 1.02. As for ATTGTGATGG, the switch fluorescence ratio was found to be 0.999.

For the sequence GGGCCCGAGT, the switch fluorescence ratio stood at 0.999.

For GTAGGCGATG, the switch fluorescence ratio amounted to 0.981. Take GAGCAGTCCC: the switch fluorescence ratio is 1.15. To GCCGTTTCAT belongs 1.01; to TCTCCAAAA, 2.48. As for ATGAGGTCCG, the switch fluorescence ratio worked out at 1.03.

Regarding GCCAAGCAAT, the switch fluorescence ratio is 1.88. For the sequence TATAACGTGG, the switch fluorescence ratio amounted to 0.961. Turning to GCGGGCGACG, the switch fluorescence ratio worked out at 0.983. With GGAAATACGT, the switch fluorescence ratio stood at 1.02.

Take ACATGGGGCT: the switch fluorescence ratio was 1. Next, AACTCGAGTG: 0.982; CTTGAGCGCG: 1.03. For AGAGTGGTCC, the switch fluorescence ratio amounted to 0.893. On to GTCATACCAA, for which the switch fluorescence ratio amounted to 0.997. Take GACTCCTGTA: the switch fluorescence ratio stood at 1.07. Consider TGACTTTTCC, for which the switch fluorescence ratio worked out at 1.16. As for AGGGCCGAGA, the switch fluorescence ratio was 1.01. Next, TACCTCTGGT: 0.991; GTGTCAAGCC: 1.03.

On to AGTTCACACA, for which the switch fluorescence ratio was 1.05. To ATATGTGCGA belongs 0.988; to TGTTCCTATT, 0.962; to GAGTAGCCTA, 0.968.

Consider CTGTTAACGA, for which the switch fluorescence ratio came to 0.999. Next, GATGAAGATC: 1.

Turning to CAACTAGGG, the switch fluorescence ratio was determined as 0.985. For the sequence GTGTCAAGTC, the switch fluorescence ratio was 1.03. For TCGGGGGAT, the switch fluorescence ratio came to 1.01.

On to CATCAATGGC, for which the switch fluorescence ratio amounted to 1.08. GTAAGGCGTT: the switch fluorescence ratio was determined as 0.999.

For GGTTGCCTTT, the switch fluorescence ratio amounted to 1. CCGAGTCATA: the switch fluorescence ratio was found to be 4.19.

The values above are taken from the supplement of paper PMC10126150.
